Test results: article PMC4336329 (PLoS ONE, 2015)
In all, about 310,000 compounds went through this assay and about 2,200 (0.71%) showed an effect of 50% or more. The effect is printed as a negative number. The list shows a part of the results.

Target: human ether-à-go-go-related gene (hERG) potassium channel (human, UniProt Q12809)
Experiment: primary screen, population patch clamp on CHO cells stably expressing hERG

Chain of human ether-à-go-go-related gene (hERG) potassium channel (Q12809 whole entry, looked up): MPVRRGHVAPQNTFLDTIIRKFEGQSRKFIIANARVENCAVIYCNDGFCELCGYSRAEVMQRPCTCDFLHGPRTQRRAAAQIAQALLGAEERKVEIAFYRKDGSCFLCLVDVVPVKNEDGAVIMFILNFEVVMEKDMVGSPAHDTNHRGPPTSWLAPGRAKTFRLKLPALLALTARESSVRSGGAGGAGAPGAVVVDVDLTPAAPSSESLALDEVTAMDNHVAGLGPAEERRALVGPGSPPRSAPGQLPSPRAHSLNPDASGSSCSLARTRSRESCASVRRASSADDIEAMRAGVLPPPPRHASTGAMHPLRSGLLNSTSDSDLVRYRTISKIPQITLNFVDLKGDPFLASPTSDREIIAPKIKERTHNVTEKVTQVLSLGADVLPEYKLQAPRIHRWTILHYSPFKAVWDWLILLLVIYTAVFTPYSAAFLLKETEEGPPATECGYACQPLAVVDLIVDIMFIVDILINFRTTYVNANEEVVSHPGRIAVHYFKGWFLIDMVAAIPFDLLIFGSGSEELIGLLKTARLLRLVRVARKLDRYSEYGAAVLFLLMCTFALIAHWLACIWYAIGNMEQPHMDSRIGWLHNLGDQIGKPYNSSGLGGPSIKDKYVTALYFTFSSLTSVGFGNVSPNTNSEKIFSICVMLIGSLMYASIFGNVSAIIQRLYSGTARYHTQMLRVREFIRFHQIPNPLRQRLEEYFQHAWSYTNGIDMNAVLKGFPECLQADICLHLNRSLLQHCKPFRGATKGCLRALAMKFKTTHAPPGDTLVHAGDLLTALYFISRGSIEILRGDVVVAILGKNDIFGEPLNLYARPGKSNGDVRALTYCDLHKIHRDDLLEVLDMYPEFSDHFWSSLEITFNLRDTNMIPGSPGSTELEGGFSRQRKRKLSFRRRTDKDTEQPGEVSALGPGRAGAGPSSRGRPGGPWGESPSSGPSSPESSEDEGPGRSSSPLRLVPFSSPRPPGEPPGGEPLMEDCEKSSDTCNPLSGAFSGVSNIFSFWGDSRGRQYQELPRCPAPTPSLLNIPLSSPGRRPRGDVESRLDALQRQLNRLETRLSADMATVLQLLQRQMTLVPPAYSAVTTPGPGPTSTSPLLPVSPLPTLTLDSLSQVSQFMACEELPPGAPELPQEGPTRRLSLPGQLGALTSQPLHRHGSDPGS

Going from `Cc1onc(-c2ccccc2)c1C(=O)Nc1c(C)n(C)n(-c2ccccc2)c1=O` to `O=C1CC(=Nc2ccccc2)NN1c1ccccc1`, the “hERG current change (%, negative = inhibition) at 1uM” value rises from 2.98% to 19%.

First: Cc1cc(C)cc(Oc2ccc(N)cc2)c1
Second: Cc1cccc(OC(=O)c2ccc3nccnc3c2)c1
The “hERG current change (%, negative = inhibition) at 1uM” value of the first is lower: 3.57% for the first, 9.6% for the second.

Compared with `Nc1ccc(CCNc2ncnc3c2ncn3[C@@H]2O[C@H](CO)[C@@H](O)[C@H]2O)cc1`, `Cn1c(=O)c([N+](=O)[O-])c(NCCc2ccccc2)c2ccccc21` is lower in “hERG current change (%, negative = inhibition) at 1uM” value: 9.75% for the first, 2.52% for the second.

First: O=P(c1ccccc1)(c1ccccc1)c1nc(-c2ccccc2)oc1N1CCOCC1
Second: O=C(c1ccco1)N1CCN(c2ncnc3scc(-c4ccccc4)c23)CC1
The “hERG current change (%, negative = inhibition) at 1uM” value of the first is higher: 6.49% for the first, -3.06% for the second.

Compared with `CCc1nnc(NC(=O)CCC2CCCCC2)s1`, `Cc1ccc(-n2ncc(-c3nnc(SCC(=O)NC4CCCC4)o3)c2N)cc1C` is lower in “hERG current change (%, negative = inhibition) at 1uM” value: 4.6% for the first, -3.33% for the second.

Going from `CN(C)S(=O)(=O)c1cccc(NC(=O)c2cc3c(cc2Cl)N2CCCCCC2=NS3(=O)=O)c1` to `Cc1ccc(Cl)cc1NC(=S)N(CCCN1CCN(C)CC1)Cc1ccco1`, the “hERG current change (%, negative = inhibition) at 1uM” value falls from 13.4% to -2.97%.

Going from `O=C(/C=C/c1ccc(F)cc1)Nc1ccc(S(=O)(=O)N2CCOCC2)cc1` to `Cc1noc(NS(=O)(=O)c2ccc(N/C=C/C(=O)c3ccc(F)cc3)cc2)c1C`, the “hERG current change (%, negative = inhibition) at 1uM” value falls from 13.5% to 2.94%.

Compared with `COC(=O)C1=C(C)N(c2ccc(OC)cc2)C(C)=C(C(=O)OC)C1c1ccccc1`, `CCOC(=O)C(=O)c1c(-c2ccc(C)cc2)nc2ccccn12` is lower in “hERG current change (%, negative = inhibition) at 1uM” value: 13.2% for the first, 7.32% for the second.

Going from `CC(C(=O)N1c2ccccc2Sc2ccccc21)n1nnc(-c2cccs2)n1` (stereo not drawn) to `CSCCC(NC(=O)COc1ccccc1)C(=O)N1CCN(c2ccccc2F)CC1` (stereo not drawn), the “hERG current change (%, negative = inhibition) at 1uM” value falls from 5.49% to -1.49%.

First: Cc1ccc(NC(=O)COC(=O)Cn2cnc3ccccc32)c([N+](=O)[O-])c1
Second: CCc1cccc(C)c1NC(=O)COC(=O)CNS(=O)(=O)/C=C/c1ccccc1
The “hERG current change (%, negative = inhibition) at 1uM” value of the first is lower: 6.89% for the first, 19.1% for the second.

Going from `CCc1noc(C)c1C(=O)OCC(=O)NCc1ccccc1OC` to `Cc1csc(NC(=O)C(C)Oc2ccc(Cl)cc2C)n1` (stereo not drawn), the “hERG current change (%, negative = inhibition) at 1uM” value rises from 12.8% to 14.2%.

Going from `O=S(=O)(Cc1ccccc1Cl)NCc1ccccc1` to `COc1ccc2cc(C(=O)N3CCN(c4ccccc4F)CC3)[nH]c2c1`, the “hERG current change (%, negative = inhibition) at 1uM” value falls from 12.9% to 11.6%.
